# According to the supplement of paper PMC8728848:
# The list shows a part of the results.
# Key:
# Test in all cases: glycan array binding signal (z-score within array); higher = stronger binding
# Details in all cases: glycan notation: IUPAC condensed, linker removed
# [1] = biological target: Fuc(a1-2)Gal6S(b1-3)GlcNAc
# Outline: (§1)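 Arrays were curated from the Consortium for Functional Glycomics database, 3228 in total, and kept only where the protein sequence was available. Binding is expressed as a within-array Z-score. This score was averaged across arrays of the same protein sequence at different concentrations or buffers and across linkers, and negative values can be read as non-binding.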
# [2] = biological target: Fuc(a1-2)Gal6S(b1-3)GlcNAc6S
# Outline: as §1
# [3] = biological target: Fuc(a1-2)Gal6S(b1-4)Glc
# Outline: as §1
# [4] = biological target: Fuc(a1-2)Gal6S(b1-4)Glc6S
# Outline: as §1
# [5] = biological target: Fuc(a1-2)[Gal(a1-3)]Gal
# Outline: as §1
# [6] = biological target: Fuc(a1-2)[Gal(a1-3)]Gal(b1-3)GalNAc
# Outline: as §1
# [7] = biological target: Fuc(a1-2)[Gal(a1-3)]Gal(b1-3)GalNAc(b1-3)Gal(a1-4)Gal(b1-4)Glc
# Outline: as §1
# [8] = biological target: Fuc(a1-2)[Gal(a1-3)]Gal(b1-3)GlcNAc
# Outline: as §1
# [9] = biological target: Fuc(a1-2)[Gal(a1-3)]Gal(b1-3)GlcNAc(b1-2)Man(a1-3)[Fuc(a1-2)[Gal(a1-3)]Gal(b1-3)GlcNAc(b1-2)Man(a1-6)]Man(b1-4)GlcNAc(b1-4)GlcNAc
# Outline: as §1
# [10] = biological target: Fuc(a1-2)[Gal(a1-3)]Gal(b1-3)GlcNAc(b1-2)Man(a1-3)[Fuc(a1-2)[Gal(a1-3)]Gal(b1-3)GlcNAc(b1-2)Man(a1-6)]Man(b1-4)GlcNAc(b1-4)[Fuc(a1-6)]GlcNAc
# Outline: as §1
# [11] = biological target: Fuc(a1-2)[Gal(a1-3)]Gal(b1-3)GlcNAc(b1-3)GalNAc
# Outline: as §1
# [12] = biological target: Fuc(a1-2)[Gal(a1-3)]Gal(b1-3)GlcNAc(b1-6)GalNAc
# Outline: as §1
# [13] = biological target: Fuc(a1-2)[Gal(a1-3)]Gal(b1-4)Glc
# Outline: as §1
# [14] = biological target: Fuc(a1-2)[Gal(a1-3)]Gal(b1-4)GlcNAc
# Outline: as §1
# [15] = biological target: Fuc(a1-2)[Gal(a1-3)]Gal(b1-4)GlcNAc(b1-2)Man
# Outline: as §1
# [16] = biological target: Fuc(a1-2)[Gal(a1-3)]Gal(b1-4)GlcNAc(b1-2)Man(a1-3)[Fuc(a1-2)[Gal(a1-3)]Gal(b1-4)GlcNAc(b1-2)Man(a1-6)]Man(b1-4)GlcNAc(b1-4)GlcNAc
# Outline: as §1
# [17] = biological target: Fuc(a1-2)[Gal(a1-3)]Gal(b1-4)GlcNAc(b1-2)Man(a1-3)[Fuc(a1-2)[Gal(a1-3)]Gal(b1-4)GlcNAc(b1-2)Man(a1-6)]Man(b1-4)GlcNAc(b1-4)[Fuc(a1-6)]GlcNAc
# Outline: as §1
# [18] = biological target: Fuc(a1-2)[Gal(a1-3)]Gal(b1-4)GlcNAc(b1-3)GalNAc
# Outline: as §1
# [19] = biological target: Fuc(a1-2)[Gal(a1-3)]Gal(b1-4)GlcNAc(b1-3)[Fuc(a1-2)[Gal(a1-3)]Gal(b1-4)GlcNAc(b1-6)]GalNAc
# Outline: as §1
# [20] = biological target: Fuc(a1-2)[Gal(a1-3)]Gal(b1-4)GlcNAc(b1-6)GalNAc
# Outline: as §1
# [21] = biological target: Fuc(a1-2)[Gal(a1-3)]Gal(b1-4)[Fuc(a1-3)]Glc
# Outline: as §1
# [22] = biological target: Fuc(a1-2)[Gal(a1-3)]Gal(b1-4)[Fuc(a1-3)]GlcNAc
# Outline: as §1
# [23] = biological target: Fuc(a1-2)[Gal(a1-3)]Gal(b1-4)[Fuc(a1-3)]GlcNAc(b1-3)GalNAc
# Outline: as §1
# [24] = biological target: Fuc(a1-2)[Gal(a1-4)]Gal(b1-4)GlcNAc
# Outline: as §1
# [25] = biological target: Fuc(a1-2)[GalNAc(a1-3)]Gal
# Outline: as §1
# [26] = biological target: Fuc(a1-2)[GalNAc(a1-3)]Gal(b1-3)GalNAc(a1-3)[Fuc(a1-2)]Gal(b1-4)GlcNAc
# Outline: as §1
# [27] = biological target: Fuc(a1-2)[GalNAc(a1-3)]Gal(b1-3)GalNAc(b1-3)Gal(a1-4)Gal(b1-4)Glc
# Outline: as §1
# [28] = biological target: Fuc(a1-2)[GalNAc(a1-3)]Gal(b1-3)GlcNAc
# Outline: as §1
# [29] = biological target: Fuc(a1-2)[GalNAc(a1-3)]Gal(b1-3)GlcNAc(b1-2)Man(a1-3)[Fuc(a1-2)[GalNAc(a1-3)]Gal(b1-3)GlcNAc(b1-2)Man(a1-6)]Man(b1-4)GlcNAc(b1-4)GlcNAc
# Outline: as §1
# [30] = biological target: Fuc(a1-2)[GalNAc(a1-3)]Gal(b1-3)GlcNAc(b1-2)Man(a1-3)[Fuc(a1-2)[GalNAc(a1-3)]Gal(b1-3)GlcNAc(b1-2)Man(a1-6)]Man(b1-4)GlcNAc(b1-4)[Fuc(a1-6)]GlcNAc
# Outline: as §1
# [31] = biological target: Fuc(a1-2)[GalNAc(a1-3)]Gal(b1-3)GlcNAc(b1-3)GalNAc
# Outline: as §1
# [32] = biological target: Fuc(a1-2)[GalNAc(a1-3)]Gal(b1-3)GlcNAc(b1-6)GalNAc
# Outline: as §1
# [33] = biological target: Fuc(a1-2)[GalNAc(a1-3)]Gal(b1-4)Glc
# Outline: as §1
# [34] = biological target: Fuc(a1-2)[GalNAc(a1-3)]Gal(b1-4)GlcNAc
# Outline: as §1
# [35] = biological target: Fuc(a1-2)[GalNAc(a1-3)]Gal(b1-4)GlcNAc(b1-2)Man
# Outline: as §1
# [36] = biological target: Fuc(a1-2)[GalNAc(a1-3)]Gal(b1-4)GlcNAc(b1-2)Man(a1-3)[Fuc(a1-2)[GalNAc(a1-3)]Gal(b1-4)GlcNAc(b1-2)Man(a1-6)]Man(b1-4)GlcNAc(b1-4)GlcNAc
# Outline: as §1
# [37] = biological target: Fuc(a1-2)[GalNAc(a1-3)]Gal(b1-4)GlcNAc(b1-2)Man(a1-3)[Fuc(a1-2)[GalNAc(a1-3)]Gal(b1-4)GlcNAc(b1-2)Man(a1-6)]Man(b1-4)GlcNAc(b1-4)[Fuc(a1-6)]GlcNAc
# Outline: as §1
# [38] = biological target: Fuc(a1-2)[GalNAc(a1-3)]Gal(b1-4)GlcNAc(b1-3)Gal(b1-4)GlcNAc
# Outline: as §1
# [39] = biological target: Fuc(a1-2)[GalNAc(a1-3)]Gal(b1-4)GlcNAc(b1-3)Gal(b1-4)GlcNAc(b1-3)Gal(b1-4)GlcNAc
# Outline: as §1
# [40] = biological target: Fuc(a1-2)[GalNAc(a1-3)]Gal(b1-4)GlcNAc(b1-3)GalNAc
# Outline: as §1
# [41] = biological target: Fuc(a1-2)[GalNAc(a1-3)]Gal(b1-4)GlcNAc(b1-3)[Fuc(a1-2)[GalNAc(a1-3)]Gal(b1-4)GlcNAc(b1-6)]GalNAc
# Outline: as §1
# [42] = biological target: Fuc(a1-2)[GalNAc(a1-3)]Gal(b1-4)GlcNAc(b1-6)GalNAc
# Outline: as §1
# [43] = biological target: Fuc(a1-2)[GalNAc(a1-3)]Gal(b1-4)[Fuc(a1-3)]GlcNAc
# Outline: as §1
# [44] = biological target: Fuc(a1-2)[GalNAc(a1-3)]Gal(b1-4)[Fuc(a1-3)]GlcNAc(b1-3)GalNAc
# Outline: as §1
# [45] = biological target: Fuc(a1-2)[GalNAc(a1-4)]Gal(b1-4)GlcNAc
# Outline: as §1
binder,measurement,setting,value
Banana lectin (Musa acuminata) (protein) MNGAIKVGAWGGNGGSAFDMGPAYRIISVKIFSGDVVDGVDVTFTYYGKTETRHYGGSGGTPHEIVLQEGEYLVGMAGEVANYHGAVVLGKLGFSTNKKAYGPFGNTGGTPFSLPIAAGKISGFFGRGGKFLDAIGVYLEPLEHHHHHH,glycan array binding signal (z-score),[1],-0.216
same,glycan array binding signal (z-score),[2],-0.182
same,glycan array binding signal (z-score),[3],-0.203
same,glycan array binding signal (z-score),[4],-0.223
same,glycan array binding signal (z-score),[5],-0.259
same,glycan array binding signal (z-score),[6],-0.162
same,glycan array binding signal (z-score),[7],-0.202
same,glycan array binding signal (z-score),[8],-0.193
same,glycan array binding signal (z-score),[9],0.148
same,glycan array binding signal (z-score),[10],0.651
same,glycan array binding signal (z-score),[11],-0.22
same,glycan array binding signal (z-score),[12],-0.374
same,glycan array binding signal (z-score),[13],-0.217
same,glycan array binding signal (z-score),[14],-0.182
same,glycan array binding signal (z-score),[15],-0.204
same,glycan array binding signal (z-score),[16],-0.047
same,glycan array binding signal (z-score),[17],0.595
same,glycan array binding signal (z-score),[18],-0.183
same,glycan array binding signal (z-score),[19],-0.195
same,glycan array binding signal (z-score),[20],-0.182
same,glycan array binding signal (z-score),[21],-0.191
same,glycan array binding signal (z-score),[22],-0.217
same,glycan array binding signal (z-score),[23],-0.192
same,glycan array binding signal (z-score),[24],-0.275
same,glycan array binding signal (z-score),[25],-0.181
same,glycan array binding signal (z-score),[26],-0.211
same,glycan array binding signal (z-score),[27],-0.218
same,glycan array binding signal (z-score),[28],-0.184
same,glycan array binding signal (z-score),[29],-0.219
same,glycan array binding signal (z-score),[30],0.778
same,glycan array binding signal (z-score),[31],-0.215
same,glycan array binding signal (z-score),[32],-0.237
same,glycan array binding signal (z-score),[33],-0.118
same,glycan array binding signal (z-score),[34],-0.154
same,glycan array binding signal (z-score),[35],-0.214
same,glycan array binding signal (z-score),[36],-0.019
same,glycan array binding signal (z-score),[37],0.421
same,glycan array binding signal (z-score),[38],-0.238
same,glycan array binding signal (z-score),[39],-0.187
same,glycan array binding signal (z-score),[40],-0.223
same,glycan array binding signal (z-score),[41],-0.173
same,glycan array binding signal (z-score),[42],-0.213
same,glycan array binding signal (z-score),[43],-0.236
same,glycan array binding signal (z-score),[44],-0.215
same,glycan array binding signal (z-score),[45],-0.19
